Assay results: the supplement of paper PMC10369915
The other results are listed elsewhere or left out. No stated cut-off is given here; in the data, active = 3.2 or more and inactive = the rest. Most of these values are background signal.

target: SHP2 C-SH2 domain E139D; assay: enrichment score (SH2-bound / input frequency) (ratio); bacterial display of known human phosphotyrosine sites (pTyr-Var adds point mutants) read by sequencing; higher = stronger binding; tyrosines were phosphorylated by kinases first; conditions: peptide library: pTyr-Var
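Further: displayed peptides selected on beads carrying the immobilized SH2 domain, with library peptides lacking any tyrosine serving as negative controls.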

Enrichment score, inactive:
EREFKYGAHKF [OAT_Y50_N54K_YF] 0.965
EREFKYDAHNF [OAT_Y50_G51D_YF] 0.664
ARKWGYTVKGI [OAT_Y158] 0.524
EREYKYGAHNY [OAT_Y50] 0.564
MAFDRYVAICA [OR52J3_Y125_V128I] 1.21
SLLTDCSPQLQ [OTC_Y345_Y345C] 0.821
ATPKGYEPDAS [OTC_Y223] 0.662
MACDRYVAICS [OR8D4_Y123] 1.39
LTDTVYSSSSA [OR4C12_Y71_I67T] 1.12
FVIISYVLIIR [OR1D2_Y218] 1.42

target: SHP2 C-SH2 domain wild-type; assay: as above; conditions: peptide library: pTyr-Var

Enrichment score, inactive:
EREFKYGAHKF [OAT_Y50_N54K_YF] 0.827
EREFKYDAHNF [OAT_Y50_G51D_YF] 0.581
ARKWGYTVKGI [OAT_Y158] 0.443
EREYKYGAHNY [OAT_Y50] 0.712
MAFDRYVAICA [OR52J3_Y125_V128I] 1.4
SLLTDCSPQLQ [OTC_Y345_Y345C] 0.906
ATPKGYEPDAS [OTC_Y223] 0.505
MACDRYVAICS [OR8D4_Y123] 1.87
LTDTVYSSSSA [OR4C12_Y71_I67T] 1.24
FVIISYVLIIR [OR1D2_Y218] 1.84

target: SHP2 N-SH2 domain L43F; assay: as above; conditions: peptide library: pTyr-Var

Enrichment score, inactive:
EREFKYGAHKF [OAT_Y50_N54K_YF] 0.788
EREFKYDAHNF [OAT_Y50_G51D_YF] 0.657
ARKWGYTVKGI [OAT_Y158] 0.488
EREYKYGAHNY [OAT_Y50] 0.347
MAFDRYVAICA [OR52J3_Y125_V128I] 1.07
SLLTDCSPQLQ [OTC_Y345_Y345C] 0.811
ATPKGYEPDAS [OTC_Y223] 0.618
MACDRYVAICS [OR8D4_Y123] 1.48
LTDTVYSSSSA [OR4C12_Y71_I67T] 0.764
FVIISYVLIIR [OR1D2_Y218] 1.46

target: SHP2 N-SH2 domain T42A; assay: as above; conditions: peptide library: pTyr-Var

Enrichment score, inactive:
EREFKYGAHKF [OAT_Y50_N54K_YF] 0.903
EREFKYDAHNF [OAT_Y50_G51D_YF] 0.69
ARKWGYTVKGI [OAT_Y158] 0.533
EREYKYGAHNY [OAT_Y50] 0.587
MAFDRYVAICA [OR52J3_Y125_V128I] 1.03
SLLTDCSPQLQ [OTC_Y345_Y345C] 0.698
ATPKGYEPDAS [OTC_Y223] 0.549
MACDRYVAICS [OR8D4_Y123] 1.64
LTDTVYSSSSA [OR4C12_Y71_I67T] 0.782
FVIISYVLIIR [OR1D2_Y218] 1.28

target: SHP2 N-SH2 domain T52S; assay: as above; conditions: peptide library: pTyr-Var

Enrichment score, inactive:
EREFKYGAHKF [OAT_Y50_N54K_YF] 0.805
EREFKYDAHNF [OAT_Y50_G51D_YF] 0.721
ARKWGYTVKGI [OAT_Y158] 0.626
EREYKYGAHNY [OAT_Y50] 0.482
MAFDRYVAICA [OR52J3_Y125_V128I] 0.859
SLLTDCSPQLQ [OTC_Y345_Y345C] 0.808
ATPKGYEPDAS [OTC_Y223] 0.521
MACDRYVAICS [OR8D4_Y123] 1.5
LTDTVYSSSSA [OR4C12_Y71_I67T] 0.803
FVIISYVLIIR [OR1D2_Y218] 2.16

target: SHP2 N-SH2 domain wild-type; assay: as above; conditions: peptide library: pTyr-Var

Enrichment score, inactive:
EREFKYGAHKF [OAT_Y50_N54K_YF] 0.93
EREFKYDAHNF [OAT_Y50_G51D_YF] 0.805
ARKWGYTVKGI [OAT_Y158] 0.446
EREYKYGAHNY [OAT_Y50] 0.525
MAFDRYVAICA [OR52J3_Y125_V128I] 1.87
SLLTDCSPQLQ [OTC_Y345_Y345C] 0.828
ATPKGYEPDAS [OTC_Y223] 0.736
MACDRYVAICS [OR8D4_Y123] 0.927
LTDTVYSSSSA [OR4C12_Y71_I67T] 1.1
FVIISYVLIIR [OR1D2_Y218] 1.13
